# Some of the results follow.
# B1: Galatrox (Botrops atrox), P0DM53 (protein)
# chain: NNCPQDWLPMNGLCYKIFDELKAWKDAEMFCRKYKPGCHLASIILYGESPEWAEGHSEVWLGLWDKKKDFSWEWTDR
# Key:
# Experiment in all cases: glycan array binding signal (z-score within array); higher = stronger binding
# Details in all cases: glycan notation: IUPAC condensed, linker removed
# [1] = target: Fuc(a1-2)[Gal(a1-4)]Gal(b1-4)GlcNAc
# How it was run: (§1)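 The binding signal is a Z-score computed within each array. Data were drawn from 3228 arrays in the Consortium for Functional Glycomics database, restricted to those with a known protein sequence. Scores were averaged over arrays of the same protein sequence at different concentrations or buffers, and over linkers, and negative values can be taken as non-binding.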
# [2] = target: Fuc(a1-2)[GalNAc(a1-3)]Gal
# How it was run: as §1
# [3] = target: Fuc(a1-2)[GalNAc(a1-3)]Gal(b1-3)GalNAc(a1-3)[Fuc(a1-2)]Gal(b1-4)GlcNAc
# How it was run: as §1
# [4] = target: Fuc(a1-2)[GalNAc(a1-3)]Gal(b1-3)GlcNAc
# How it was run: as §1
# [5] = target: Fuc(a1-2)[GalNAc(a1-3)]Gal(b1-3)GlcNAc(b1-2)Man(a1-3)[Fuc(a1-2)[GalNAc(a1-3)]Gal(b1-3)GlcNAc(b1-2)Man(a1-6)]Man(b1-4)GlcNAc(b1-4)GlcNAc
# How it was run: as §1
# [6] = target: Fuc(a1-2)[GalNAc(a1-3)]Gal(b1-4)Glc
# How it was run: as §1
# [7] = target: Fuc(a1-2)[GalNAc(a1-3)]Gal(b1-4)GlcNAc
# How it was run: as §1
# [8] = target: Fuc(a1-2)[GalNAc(a1-3)]Gal(b1-4)GlcNAc(b1-2)Man(a1-3)[Fuc(a1-2)[GalNAc(a1-3)]Gal(b1-4)GlcNAc(b1-2)Man(a1-6)]Man(b1-4)GlcNAc(b1-4)GlcNAc
# How it was run: as §1
# [9] = target: Fuc(a1-2)[GalNAc(a1-3)]Gal(b1-4)GlcNAc(b1-3)Gal(b1-4)GlcNAc
# How it was run: as §1
# [10] = target: Fuc(a1-2)[GalNAc(a1-3)]Gal(b1-4)GlcNAc(b1-3)Gal(b1-4)GlcNAc(b1-3)Gal(b1-4)GlcNAc
# How it was run: as §1
# [11] = target: Fuc(a1-2)[GalNAc(a1-3)]Gal(b1-4)[Fuc(a1-3)]GlcNAc
# How it was run: as §1
# [12] = target: Fuc(a1-2)[GalNAc(a1-4)]Gal(b1-4)GlcNAc
# How it was run: as §1
# [13] = target: Fuc(a1-2)[GalNAc(b1-3)]Gal
# How it was run: as §1
# [14] = target: Fuc(a1-3)GlcNAc
# How it was run: as §1
# [15] = target: Fuc(a1-3)[Gal(b1-4)]Glc6S
# How it was run: as §1
# [16] = target: Fuc(a1-3)[Gal(b1-4)]GlcNAc
# How it was run: as §1
# [17] = target: Fuc(a1-3)[Gal(b1-4)]GlcNAc(b1-2)Man(a1-3)[Fuc(a1-3)[Gal(b1-4)]GlcNAc(b1-2)Man(a1-6)]Man(b1-4)GlcNAc(b1-4)GlcNAc
# How it was run: as §1
# [18] = target: Fuc(a1-3)[Gal(b1-4)]GlcNAc(b1-3)Gal(b1-3)[Fuc(a1-4)]GlcNAc
# How it was run: as §1
# [19] = target: Fuc(a1-3)[Gal(b1-4)]GlcNAc(b1-3)GalNAc
# How it was run: as §1
# [20] = target: Fuc(a1-3)[Gal(b1-4)]GlcNAc(b1-4)Gal(b1-4)[Fuc(a1-3)]GlcNAc
# How it was run: as §1
# [21] = target: Fuc(a1-3)[Gal(b1-4)]GlcNAc(b1-4)Gal(b1-4)[Fuc(a1-3)]GlcNAc(b1-4)Gal(b1-4)[Fuc(a1-3)]GlcNAc
# How it was run: as §1
# [22] = target: Fuc(a1-3)[Gal(b1-4)]GlcNAc(b1-6)[Gal(b1-3)GlcNAc(b1-3)]Gal(b1-4)Glc
# How it was run: as §1
# [23] = target: Fuc(a1-3)[Gal(b1-4)]GlcNAc6S
# How it was run: as §1
# [24] = target: Fuc(a1-3)[Gal3S(b1-4)]GlcNAc
# How it was run: as §1
# [25] = target: Fuc(a1-3)[Gal3S(b1-4)]GlcNAc6S
# How it was run: as §1
# [26] = target: Fuc(a1-3)[GalNAc(b1-4)]GlcNAc
# How it was run: as §1
# [27] = target: Fuc(a1-4)GlcNAc
# How it was run: as §1
# [28] = target: Fuc(b1-3)GlcNAc
# How it was run: as §1
# [29] = target: Gal(a1-2)Gal
# How it was run: as §1
# [30] = target: Gal(a1-3)Gal
# How it was run: as §1
# [31] = target: Gal(a1-3)Gal(b1-3)GlcNAc
# How it was run: as §1
# [32] = target: Gal(a1-3)Gal(b1-3)GlcNAc(b1-2)Man(a1-3)[Gal(a1-3)Gal(b1-3)GlcNAc(b1-2)Man(a1-6)]Man(b1-4)GlcNAc(b1-4)GlcNAc
# How it was run: as §1
# [33] = target: Gal(a1-3)Gal(b1-3)[Fuc(a1-4)]GlcNAc(b1-2)Man(a1-3)[Gal(a1-3)Gal(b1-3)[Fuc(a1-4)]GlcNAc(b1-2)Man(a1-6)]Man(b1-4)GlcNAc(b1-4)GlcNAc
# How it was run: as §1
# [34] = target: Gal(a1-3)Gal(b1-4)Glc
# How it was run: as §1
# [35] = target: Gal(a1-3)Gal(b1-4)GlcNAc
# How it was run: as §1
# [36] = target: Gal(a1-3)Gal(b1-4)GlcNAc(b1-3)GalNAc
# How it was run: as §1
# [37] = target: Gal(a1-3)Gal(b1-4)[Fuc(a1-3)]GlcNAc
# How it was run: as §1
# [38] = target: Gal(a1-3)Gal(b1-4)[Fuc(a1-3)]GlcNAc(b1-2)Man(a1-3)[Gal(a1-3)Gal(b1-4)[Fuc(a1-3)]GlcNAc(b1-2)Man(a1-6)]Man(b1-4)GlcNAc(b1-4)GlcNAc
# How it was run: as §1
binder,measurement,setting,value
B1,glycan array binding signal (z-score),[1],-0.351
same,glycan array binding signal (z-score),[2],-0.357
same,glycan array binding signal (z-score),[3],-0.377
same,glycan array binding signal (z-score),[4],-0.377
same,glycan array binding signal (z-score),[5],-0.325
same,glycan array binding signal (z-score),[6],-0.359
same,glycan array binding signal (z-score),[7],-0.37
same,glycan array binding signal (z-score),[8],-0.309
same,glycan array binding signal (z-score),[9],-0.364
same,glycan array binding signal (z-score),[10],0.646
same,glycan array binding signal (z-score),[11],-0.359
same,glycan array binding signal (z-score),[12],0.363
same,glycan array binding signal (z-score),[13],-0.355
same,glycan array binding signal (z-score),[14],-0.373
same,glycan array binding signal (z-score),[15],-0.368
same,glycan array binding signal (z-score),[16],-0.365
same,glycan array binding signal (z-score),[17],-0.352
same,glycan array binding signal (z-score),[18],-0.353
same,glycan array binding signal (z-score),[19],0.996
same,glycan array binding signal (z-score),[20],-0.107
same,glycan array binding signal (z-score),[21],-0.366
same,glycan array binding signal (z-score),[22],0.089
same,glycan array binding signal (z-score),[23],1.72
same,glycan array binding signal (z-score),[24],-0.351
same,glycan array binding signal (z-score),[25],1.01
same,glycan array binding signal (z-score),[26],-0.367
same,glycan array binding signal (z-score),[27],-0.374
same,glycan array binding signal (z-score),[28],-0.37
same,glycan array binding signal (z-score),[29],-0.367
same,glycan array binding signal (z-score),[30],-0.37
same,glycan array binding signal (z-score),[31],0.052
same,glycan array binding signal (z-score),[32],0.477
same,glycan array binding signal (z-score),[33],-0.338
same,glycan array binding signal (z-score),[34],-0.345
same,glycan array binding signal (z-score),[35],-0.137
same,glycan array binding signal (z-score),[36],-0.325
same,glycan array binding signal (z-score),[37],-0.145
same,glycan array binding signal (z-score),[38],0.245
